# Experimental data published in article PMC9911399, “Two distinct binding modes provide the RNA-binding protein RbFox with extraordinary sequence specificity”.
# Positions count from the first letter of the chain named. The list shows a part of the results.
# T1: RBFOX1 RRM RbFoxmut (Fox-RRM*) (Homo sapiens, UniProt Q9NWB1 109-208, R118D;E147R;N151S;E152T)
# T1 sequence: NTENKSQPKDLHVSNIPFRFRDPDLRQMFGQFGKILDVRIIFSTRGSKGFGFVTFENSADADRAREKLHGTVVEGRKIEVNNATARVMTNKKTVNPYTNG
# B1: UGUGAGC (DNA:RNA)
# RNA: GGGAGACCGGAAUUCAGAUUGUCCUGUGAGCUUAAAUCCCGUCGUAGCCACCA
# DNA 1: CAATCTGAATTCCGGTCTCCC
# DNA 2: TGGTGGCTACGACGGGATT
# B2: AGACGGU (DNA:RNA)
# RNA: B1 RNA with U25A, U27A, G28C, A29G, C31U
# DNA 1: CAATCTGAATTCCGGTCTCCC
# DNA 2: TGGTGGCTACGACGGGATT
# B3: GGUUACC (DNA:RNA)
# RNA: B1 RNA with U25G, G28U, G30C
# DNA 1: CAATCTGAATTCCGGTCTCCC
# DNA 2: TGGTGGCTACGACGGGATT
# B4: ACGCCGU (DNA:RNA)
# RNA: B1 RNA with U25A, G26C, U27G, G28C, A29C, C31U
# DNA 1: CAATCTGAATTCCGGTCTCCC
# DNA 2: TGGTGGCTACGACGGGATT
# B5: AUCGUUA (DNA:RNA)
# RNA: B1 RNA with U25A, G26U, U27C, A29U, G30U, C31A
# DNA 1: CAATCTGAATTCCGGTCTCCC
# DNA 2: TGGTGGCTACGACGGGATT
# B6: UGAAGCA (DNA:RNA)
# RNA: B1 RNA with U27A, G28A, A29G, G30C, C31A
# DNA 1: CAATCTGAATTCCGGTCTCCC
# DNA 2: TGGTGGCTACGACGGGATT
# B7: AAGCGAU (DNA:RNA)
# RNA: GGGAGACCGGAAUUCAGAUUGUCCAAGCGAUUUAAAUCCCGUCGUAGCCACCA
# DNA 1: CAATCTGAATTCCGGTCTCCC
# DNA 2: TGGTGGCTACGACGGGATT
# B8: ACUCUCG (DNA:RNA)
# RNA: B7 RNA with A26C, G27U, G29U, A30C, U31G
# DNA 1: CAATCTGAATTCCGGTCTCCC
# DNA 2: TGGTGGCTACGACGGGATT
# B9: AGGUAUC (DNA:RNA)
# RNA: B1 RNA with U25A, U27G, G28U, G30U
# DNA 1: CAATCTGAATTCCGGTCTCCC
# DNA 2: TGGTGGCTACGACGGGATT
# B10: UUCUCGA (DNA:RNA)
# RNA: B1 RNA with G26U, U27C, G28U, A29C, C31A
# DNA 1: CAATCTGAATTCCGGTCTCCC
# DNA 2: TGGTGGCTACGACGGGATT
# B11: GUAGCAC (DNA:RNA)
# RNA: B1 RNA with U25G, G26U, U27A, A29C, G30A
# DNA 1: CAATCTGAATTCCGGTCTCCC
# DNA 2: TGGTGGCTACGACGGGATT
# B12: UGUGAGG (DNA:RNA)
# RNA: B1 RNA with C31G
# DNA 1: CAATCTGAATTCCGGTCTCCC
# DNA 2: TGGTGGCTACGACGGGATT
# B13: UCCAAGC (DNA:RNA)
# RNA: B1 RNA with G26C, U27C, G28A
# DNA 1: CAATCTGAATTCCGGTCTCCC
# DNA 2: TGGTGGCTACGACGGGATT
# B14: GGAGUGG (DNA:RNA)
# RNA: B1 RNA with U25G, U27A, A29U, C31G
# DNA 1: CAATCTGAATTCCGGTCTCCC
# DNA 2: TGGTGGCTACGACGGGATT
# B15: CAAGGGU (DNA:RNA)
# RNA: B7 RNA with A25C, G27A, C28G, A30G
# DNA 1: CAATCTGAATTCCGGTCTCCC
# DNA 2: TGGTGGCTACGACGGGATT
# B16: CGGGCCG (DNA:RNA)
# RNA: B1 RNA with U25C, U27G, A29C, G30C, C31G
# DNA 1: CAATCTGAATTCCGGTCTCCC
# DNA 2: TGGTGGCTACGACGGGATT
# B17: AGGGGGG (DNA:RNA)
# RNA: B7 RNA with A26G, C28G, A30G, U31G
# DNA 1: CAATCTGAATTCCGGTCTCCC
# DNA 2: TGGTGGCTACGACGGGATT
# B18: CUCCCUG (DNA:RNA)
# RNA: B7 RNA with A25C, A26U, G27C, G29C, A30U, U31G
# DNA 1: CAATCTGAATTCCGGTCTCCC
# DNA 2: TGGTGGCTACGACGGGATT
# B19: CACUGAG (DNA:RNA)
# RNA: B7 RNA with A25C, G27C, C28U, U31G
# DNA 1: CAATCTGAATTCCGGTCTCCC
# DNA 2: TGGTGGCTACGACGGGATT
# B20: ACCGGUG (DNA:RNA)
# RNA: B7 RNA with A26C, G27C, C28G, A30U, U31G
# DNA 1: CAATCTGAATTCCGGTCTCCC
# DNA 2: TGGTGGCTACGACGGGATT
# B21: AUAUAGA (DNA:RNA)
# RNA: B1 RNA with U25A, G26U, U27A, G28U, C31A
# DNA 1: CAATCTGAATTCCGGTCTCCC
# DNA 2: TGGTGGCTACGACGGGATT
# B22: GCACAAG (DNA:RNA)
# RNA: B7 RNA with A25G, A26C, G27A, G29A, U31G
# DNA 1: CAATCTGAATTCCGGTCTCCC
# DNA 2: TGGTGGCTACGACGGGATT
# B23: UUUCUAA (DNA:RNA)
# RNA: B7 RNA with A25U, A26U, G27U, G29U, U31A
# DNA 1: CAATCTGAATTCCGGTCTCCC
# DNA 2: TGGTGGCTACGACGGGATT
# B24: AGUGUAG (DNA:RNA)
# RNA: B1 RNA with U25A, A29U, G30A, C31G
# DNA 1: CAATCTGAATTCCGGTCTCCC
# DNA 2: TGGTGGCTACGACGGGATT
# B25: CUAGCGA (DNA:RNA)
# RNA: B1 RNA with U25C, G26U, U27A, A29C, C31A
# DNA 1: CAATCTGAATTCCGGTCTCCC
# DNA 2: TGGTGGCTACGACGGGATT
# B26: GUGUACC (DNA:RNA)
# RNA: B1 RNA with U25G, G26U, U27G, G28U, G30C
# DNA 1: CAATCTGAATTCCGGTCTCCC
# DNA 2: TGGTGGCTACGACGGGATT
# B27: GCGCCCG (DNA:RNA)
# RNA: B7 RNA with A25G, A26C, G29C, A30C, U31G
# DNA 1: CAATCTGAATTCCGGTCTCCC
# DNA 2: TGGTGGCTACGACGGGATT
# B28: UACCAGG (DNA:RNA)
# RNA: B1 RNA with G26A, U27C, G28C, C31G
# DNA 1: CAATCTGAATTCCGGTCTCCC
# DNA 2: TGGTGGCTACGACGGGATT
# B29: AAGUGAU (DNA:RNA)
# RNA: B7 RNA with C28U
# DNA 1: CAATCTGAATTCCGGTCTCCC
# DNA 2: TGGTGGCTACGACGGGATT
# B30: GCAAUGU (DNA:RNA)
# RNA: B7 RNA with A25G, A26C, G27A, C28A, G29U, A30G
# DNA 1: CAATCTGAATTCCGGTCTCCC
# DNA 2: TGGTGGCTACGACGGGATT
# B31: GACUCAA (DNA:RNA)
# RNA: B7 RNA with A25G, G27C, C28U, G29C, U31A
# DNA 1: CAATCTGAATTCCGGTCTCCC
# DNA 2: TGGTGGCTACGACGGGATT
# Target: T1, RBFOX1 RRM RbFoxmut (Fox-RRM*)
# Assay: EMSA; HiTS-Eq, 1 nM pool, 10 min; buffer printed only for the single-RNA assays: 10 mM Tris pH 7.5, 150 mM NaCl, 3.4 mM EDTA, 0.001% NP-40, 30 C
# Conditions: tags: His6 N-terminal (pET28a); label: 5' 32P
# Method in brief: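 A pool of RNA with 7 randomized nucleotides, 5′-radiolabelled and with DNA-annealed flanks, was equilibrated at 1 nM for 10 min in 50 µL with purified RbFox RRM, wild type or mutant, across increasing protein concentrations. Free RNA was separated by 8% native PAGE, excised, reverse-transcribed, barcoded by PCR and sequenced. Relative association constants were obtained from read-count changes of each RNA species versus the control reaction and normalised to the cognate motif.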
row,Binder,binding signal
1,B1,0.128 KA relative to UGCAUGU
2,B2,0.093 KA relative to UGCAUGU
3,B3,0.107 KA relative to UGCAUGU
4,B4,0.109 KA relative to UGCAUGU
5,B5,0.18 KA relative to UGCAUGU
6,B6,0.107 KA relative to UGCAUGU
7,B7,0.0622 KA relative to UGCAUGU
8,B8,0.0861 KA relative to UGCAUGU
9,B9,0.191 KA relative to UGCAUGU
10,B10,0.0669 KA relative to UGCAUGU
11,B11,0.0949 KA relative to UGCAUGU
12,B12,0.111 KA relative to UGCAUGU
13,B13,0.0628 KA relative to UGCAUGU
14,B14,0.112 KA relative to UGCAUGU
15,B15,0.0862 KA relative to UGCAUGU
16,B16,0.156 KA relative to UGCAUGU

row,Binder,binding signal
1,B17,0.104 KA relative to UGCAUGU
2,B18,0.0994 KA relative to UGCAUGU
3,B19,0.0817 KA relative to UGCAUGU
4,B20,0.0922 KA relative to UGCAUGU
5,B21,0.119 KA relative to UGCAUGU
6,B22,0.0941 KA relative to UGCAUGU
7,B23,0.0871 KA relative to UGCAUGU
8,B24,0.165 KA relative to UGCAUGU
9,B25,0.0572 KA relative to UGCAUGU
10,B26,0.134 KA relative to UGCAUGU
11,B27,0.101 KA relative to UGCAUGU
12,B28,0.0709 KA relative to UGCAUGU
13,B29,0.0869 KA relative to UGCAUGU
14,B30,0.12 KA relative to UGCAUGU
15,B31,0.0967 KA relative to UGCAUGU
